# In PMC4336329 (PLoS ONE, 2015):
# Hit rate of the full screen: of about 310,000 compounds, about 2,200 (0.71%) showed an effect of 50% or more. Effects have a minus sign here. Some of the results follow.
# Biological target: human ether-à-go-go-related gene (hERG) potassium channel (human, UniProt Q12809)
# Assay: primary screen, population patch clamp on CHO cells stably expressing hERG
# Chain of human ether-à-go-go-related gene (hERG) potassium channel (Q12809 whole entry, looked up): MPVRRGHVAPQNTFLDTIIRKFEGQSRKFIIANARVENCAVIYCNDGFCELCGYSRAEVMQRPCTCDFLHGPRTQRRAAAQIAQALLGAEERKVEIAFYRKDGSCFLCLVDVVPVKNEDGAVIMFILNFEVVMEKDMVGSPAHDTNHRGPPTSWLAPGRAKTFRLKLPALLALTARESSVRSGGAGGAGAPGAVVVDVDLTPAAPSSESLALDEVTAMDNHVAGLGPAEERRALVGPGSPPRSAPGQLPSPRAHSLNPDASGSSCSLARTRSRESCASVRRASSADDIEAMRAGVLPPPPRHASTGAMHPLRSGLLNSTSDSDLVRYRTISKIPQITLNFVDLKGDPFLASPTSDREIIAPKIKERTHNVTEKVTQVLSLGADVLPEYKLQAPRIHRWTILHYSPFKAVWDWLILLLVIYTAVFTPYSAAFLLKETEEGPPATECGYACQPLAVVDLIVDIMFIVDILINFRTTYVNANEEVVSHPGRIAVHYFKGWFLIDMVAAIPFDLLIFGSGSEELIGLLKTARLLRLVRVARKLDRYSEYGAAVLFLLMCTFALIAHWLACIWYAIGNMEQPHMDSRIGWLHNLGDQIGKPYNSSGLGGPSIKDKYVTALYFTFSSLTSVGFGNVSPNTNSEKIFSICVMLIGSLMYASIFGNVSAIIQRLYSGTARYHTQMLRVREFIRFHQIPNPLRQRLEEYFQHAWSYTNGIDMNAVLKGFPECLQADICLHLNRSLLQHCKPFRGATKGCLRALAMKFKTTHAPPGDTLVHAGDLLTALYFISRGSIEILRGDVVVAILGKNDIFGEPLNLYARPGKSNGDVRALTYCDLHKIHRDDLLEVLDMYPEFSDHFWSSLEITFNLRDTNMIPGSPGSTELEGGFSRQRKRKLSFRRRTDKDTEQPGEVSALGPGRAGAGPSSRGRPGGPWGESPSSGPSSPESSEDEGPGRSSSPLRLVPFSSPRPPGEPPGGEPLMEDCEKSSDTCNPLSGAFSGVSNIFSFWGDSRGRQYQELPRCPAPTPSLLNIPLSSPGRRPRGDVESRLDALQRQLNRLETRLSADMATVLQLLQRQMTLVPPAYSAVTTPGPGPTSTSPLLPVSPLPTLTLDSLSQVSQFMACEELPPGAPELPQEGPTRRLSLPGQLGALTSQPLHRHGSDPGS
row,SMILES,"hERG current change (%, negative = inhibition) at 1uM [%]"
1,C=CCN1C(=O)/C(=C2/Sc3ccc(OC)cc3N2C)SC1=Nc1ccccc1,4.59
2,COc1cc(NC(=O)CSc2ncnc3sc4c(c23)CCC(C)C4)c(C(=O)O)cc1OC (centres unmarked),17.6
3,FC(F)(F)c1cc(C(F)(F)F)n2nc(-c3sccc3-n3cccc3)cc2n1,14.3
4,O=C(NC(=S)Nc1ccc(Cc2ccncc2)cc1)c1ccc(F)cc1,13.8
5,COC(=O)CC1C(=O)NCCN1C(=O)NC1CCCCC1 (centres unmarked),7.21
6,Cc1cc(C)c(NC(=O)COC(=O)/C=C/c2cccs2)c(C)c1,9.07
7,CCOc1ccc(NC(=O)CN(C)C(=O)C2CCN(c3ncnc4sc(C)c(C)c34)CC2)cc1OCC,-6.14
8,CC(=O)NC(Cc1ccc(C(C)C)cc1)C(=O)NC1CCN(c2nc(C)cc(C)n2)CC1 (centres unmarked),9.44
9,Br.CCCCC1CC(CSC(=N)N)OC1=O (centres unmarked),9.2
10,Cc1ccc(OCC(=O)N2N=C(c3cccnc3)CC2(O)C(F)(F)F)cc1C (centres unmarked),12.8
11,CN(Cc1ccco1)c1ncnc2ccc(-c3ccc4c(c3)OCO4)cc12,17.6
12,COc1cc(/C=N\NC(=O)c2sc(N)nc2C)cc(OC)c1OC,6.17
13,Cc1c(C#N)c(NC(=O)c2ccccc2)n(Cc2ccccc2)c1C,-1.54
14,CCCN1CCN(C(=O)c2oc3c(Cl)cccc3c2C)CC1,-0.0965
15,Cc1nc2cc(C(=O)OCC(=O)Nc3ccc(C#N)cc3)ccc2n1-c1ccccc1,9.44
16,Oc1ccccc1C1OCC2(CO1)COC(c1ccccc1O)OC2 (centres unmarked),-0.729
17,S=C(Nc1cccnc1)NC1CCCCCCC1,4.29
18,O=C(Nc1ccccc1)Nc1ccc(Br)c(Cl)c1,9.84
19,COc1cc(/C=C/c2nc3ccc([N+](=O)[O-])cc3s2)ccc1OCC(=O)O,11.4
20,COc1ccc([N+](=O)[O-])cc1NC(=S)NC(NC(C)=O)C(Cl)(Cl)Cl (centres unmarked),10.4
21,CC(NC(=O)C1C2C=CC(C2)C1C(=O)O)c1ccccc1 (centres unmarked),3.81
22,COc1ccc(CNc2nc(NCc3ccc(OC)c(OC)c3)n(C(=O)c3cccs3)n2)cc1OC,13.1

row,SMILES,"hERG current change (%, negative = inhibition) at 1uM [%]"
1,O=C(CSc1nnc(-c2ccc(F)cc2)o1)N1CCCC1,0.128
2,CC1(C)C2CC=C(CN3CCOCC3)C1C2 (centres unmarked),9.52
3,COc1ccc(C2CC(c3cc(Br)ccc3F)n3nnnc3N2)cc1 (centres unmarked),2.87
4,Cc1ccc(NC(=O)Nc2cnccn2)cc1C,12.3
5,CN1CCN(NC(=O)c2ccc(Br)s2)CC1,13.5
6,COc1cc(OC)nc(Oc2ccc(NC(C)=O)cc2)n1,7.98
7,CCOc1ccc2nc(Cl)c(C3CC(c4ccccc4)=NN3C(=O)c3cccs3)cc2c1 (centres unmarked),2.49
8,Cc1ccc(N(C(=O)c2ccn[nH]2)C(C(=O)NC2CCCC2)c2cccs2)cc1 (centres unmarked),15.4
9,COc1cc(/C=N/Nc2ccc(C(=O)O)cc2)ccc1O,13.7
10,O=S(=O)(NCCOc1ccc(F)cc1)c1ccc2c(c1)OCCO2,-2.47
11,CCCc1ccc(C(C)NC(=S)NC2CCCCC2)cc1 (centres unmarked),14.3
12,CCC(CO)Oc1cc(NCc2ccc(OC)cc2)c2ncn(C(C)C)c2c1 (centres unmarked),9.04
13,O=C(Nn1c(C2CCCCC2)nc2ccccc2c1=O)c1cc(Cl)ccc1[N+](=O)[O-],6.53
14,COc1cc(NC(=O)c2cc(C)on2)cc(OC)c1OC,0.949
15,CN(CC(=O)Nc1c(Cl)cccc1Cl)C(=O)C1CSC2(C)CCC(=O)N12 (centres unmarked),2.85
16,O=C(NC1CCCCC1)NC1CCN(S(=O)(=O)c2ccc3c(c2)OCCO3)CC1,9.08
17,CCCCOC(=O)c1ccc(OC(=O)N2CCOCC2)cc1,7.32
18,N/C(=N\OC(=O)CCCOc1ccccc1)c1cccc(Br)c1,23
19,CCOC(=O)c1c(S(=O)(=O)NCC(=O)Nc2ccccc2OC)c(C)n(C)c1C,9.9
20,Cc1c(CNC(=O)c2c([N+](=O)[O-])cnn2C)cnn1C,6.57
21,CCN(CC)C(=O)CSc1nnc(-c2cccnc2)n1Cc1ccccc1,2.95
22,CC(=O)Oc1cc2c(cc1Cl)C(c1cccs1)CC1(CC(C)(C)NC(=S)N1)O2 (centres unmarked),8.54
